The list shows a part of the results.
Tests used:
Test in all cases: glycan array binding signal (z-score within array); higher = stronger binding
Conditions in all cases: glycan notation: IUPAC condensed, linker removed
[1] = biological target: Neu5Ac(a2-8)Neu5Ac
How it was run: (§1)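 Columns mapping to the same glycan were averaged after glycan names were converted to IUPAC-condensed notation. The data come from 3228 arrays in the Consortium for Functional Glycomics database, limited to those with an available protein sequence. Binding is reported as a within-array Z-score averaged across arrays of one protein sequence and across linkers.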

[2] = biological target: Neu5Ac(a2-8)Neu5Ac(a2-3)Gal(b1-3)GalNAc(b1-4)[Neu5Ac(a2-3)]Gal(b1-4)Glc
How it was run: as §1

[3] = biological target: Neu5Ac(a2-8)Neu5Ac(a2-3)Gal(b1-3)GalNAc(b1-4)[Neu5Ac(a2-8)Neu5Ac(a2-3)]Gal(b1-4)Glc
How it was run: as §1

[4] = biological target: Neu5Ac(a2-8)Neu5Ac(a2-3)Gal(b1-4)Glc
How it was run: as §1

[5] = biological target: Neu5Ac(a2-8)Neu5Ac(a2-3)Gal(b1-4)GlcNAc
How it was run: as §1

[6] = biological target: Neu5Ac(a2-8)Neu5Ac(a2-3)[Gal(b1-3)GalNAc(b1-4)]Gal(b1-4)Glc
How it was run: as §1

[7] = biological target: Neu5Ac(a2-8)Neu5Ac(a2-3)[GalNAc(b1-4)]Gal(b1-4)Glc
How it was run: as §1

[8] = biological target: Neu5Ac(a2-8)Neu5Ac(a2-8)Neu5Ac
How it was run: as §1

[9] = biological target: Neu5Ac(a2-8)Neu5Ac(a2-8)Neu5Ac(a2-3)Gal(b1-4)Glc
How it was run: as §1

[10] = biological target: Neu5Ac(a2-8)Neu5Ac(a2-8)Neu5Ac(a2-3)[Gal(b1-3)GalNAc(b1-4)]Gal(b1-4)Glc
How it was run: as §1

[11] = biological target: Neu5Ac(a2-8)Neu5Ac(a2-8)Neu5Ac(a2-3)[GalNAc(b1-4)]Gal(b1-4)Glc
How it was run: as §1

[12] = biological target: Neu5Ac(a2-8)Neu5Ac(a2-8)Neu5Ac(a2-8)Neu5Ac(a2-3)[GalNAc(b1-4)]Gal(b1-4)Glc
How it was run: as §1

[13] = biological target: Neu5Ac(a2-8)Neu5Gc(a2-3)Gal(b1-4)GlcNAc
How it was run: as §1

[14] = biological target: Neu5Ac(b2-6)Gal(b1-4)GlcNAc
How it was run: as §1

[15] = biological target: Neu5Ac(b2-6)GalNAc
How it was run: as §1

[16] = biological target: Neu5Ac9Ac(a2-3)Gal(b1-3)GlcNAc
How it was run: as §1

[17] = biological target: Neu5Ac9Ac(a2-3)Gal(b1-4)GlcNAc
How it was run: as §1

[18] = biological target: Neu5Ac9Ac(a2-6)Gal(b1-4)GlcNAc
How it was run: as §1

[19] = biological target: Neu5Gc(a2-3)Gal(b1-3)GlcNAc
How it was run: as §1

[20] = biological target: Neu5Gc(a2-3)Gal(b1-3)[Fuc(a1-4)]GlcNAc
How it was run: as §1

[21] = biological target: Neu5Gc(a2-3)Gal(b1-4)Glc
How it was run: as §1

[22] = biological target: Neu5Gc(a2-3)Gal(b1-4)GlcNAc
How it was run: as §1

[23] = biological target: Neu5Gc(a2-3)Gal(b1-4)GlcNAc(b1-3)Gal(b1-4)GlcNAc(b1-2)Man(a1-3)[Neu5Gc(a2-3)Gal(b1-4)GlcNAc(b1-3)Gal(b1-4)GlcNAc(b1-2)Man(a1-6)]Man(b1-4)GlcNAc(b1-4)GlcNAc
How it was run: as §1

[24] = biological target: Neu5Gc(a2-3)Gal(b1-4)[Fuc(a1-3)]GlcNAc
How it was run: as §1

[25] = biological target: Neu5Gc(a2-6)Gal(b1-4)GlcNAc
How it was run: as §1

[26] = biological target: Neu5Gc(a2-6)GalNAc
How it was run: as §1

[27] = biological target: Neu5Gc(a2-8)Neu5Ac(a2-3)Gal(b1-4)GlcNAc
How it was run: as §1

[28] = biological target: Neu5Gc(a2-8)Neu5Gc(a2-3)Gal(b1-4)GlcNAc
How it was run: as §1

[29] = biological target: Neu5Gc(a2-8)Neu5Gc(a2-3)Gal(b1-4)GlcNAc(b1-3)Gal(b1-4)GlcNAc
How it was run: as §1

[30] = biological target: Neu5Gc(a2-8)Neu5Gc(a2-6)Gal(b1-4)GlcNAc
How it was run: as §1

[31] = biological target: Neu5Gc(b2-6)Gal(b1-4)GlcNAc
How it was run: as §1

B1: PX9961V-pdi-562-26-562 (Parabacteroides distasonis) (protein)
chain: EIFSEITTDNYYQNSNNIYAALVNNYAKAFSTGWSDARYFLQEVTADQLMIPTRGKHGYNGGEYVRLHEHKWTVEENFVYNGWAAPFQGIALCNNTLSDFENLDFSTFKLTEETKNEYIAELRALRVWNYMFLIDFFRHVPIVTDIEEVKAQSTPLEVFNFMESELLAILPDLPKNRGVSRFDQAGVASILVRLYLNAEKWIGISKYDECEQMAQAILDGKYGEYSIDPDYRGPFRSGINGYRSKENIMEFAIKKNYFEASWLYNMWMHYQDRYSLDNDWQGWNGGNLAPSRDLYGNLYQDKLGMPFEKFPDGDIRKKAFRVISNDGDYEGFFLMGTQYKFDYEKGYGFTDEVITGTEEYNGKPLVYVDQVGRFSEGETGLAKGSHVIYGEENTGYRLIKFPWLPQSKDLFQMNSIPEIRLAEIYYSLAECKYRSGDKIGAARLLDVVRKRYYKAEDWSKFSYESNISKLTDDEFVDELGREFIGERHRRIDLIRWNRFSEGAWWDKTPDATNQDVFPIPYRALNANPLLKQTTAGF
[1]
  glycan array binding signal (z-score): -0.274
[2]
  glycan array binding signal (z-score): -0.606
[3]
  glycan array binding signal (z-score): 0.306
[4]
  glycan array binding signal (z-score): -0.607
[5]
  glycan array binding signal (z-score): -0.574
[6]
  glycan array binding signal (z-score): 0.136
[7]
  glycan array binding signal (z-score): -0.364
[8]
  glycan array binding signal (z-score): -0.656
[9]
  glycan array binding signal (z-score): -0.576
[10]
  glycan array binding signal (z-score): 0.05
[11]
  glycan array binding signal (z-score): -0.652
[12]
  glycan array binding signal (z-score): 0.683
[13]
  glycan array binding signal (z-score): 2.96
[14]
  glycan array binding signal (z-score): 0.773
[15]
  glycan array binding signal (z-score): -0.409
[16]
  glycan array binding signal (z-score): -0.712
[17]
  glycan array binding signal (z-score): -0.389
[18]
  glycan array binding signal (z-score): -0.56
[19]
  glycan array binding signal (z-score): -0.579
[20]
  glycan array binding signal (z-score): -0.515
[21]
  glycan array binding signal (z-score): -0.025
[22]
  glycan array binding signal (z-score): 0.017
[23]
  glycan array binding signal (z-score): -0.054
[24]
  glycan array binding signal (z-score): -0.162
[25]
  glycan array binding signal (z-score): -0.522
[26]
  glycan array binding signal (z-score): -0.458
[27]
  glycan array binding signal (z-score): -0.485
[28]
  glycan array binding signal (z-score): -0.391
[29]
  glycan array binding signal (z-score): -0.604
[30]
  glycan array binding signal (z-score): -0.086
[31]
  glycan array binding signal (z-score): -0.322

Reference: the supplement of paper PMC8728848
